Results reported in PubChem BioAssay AID485294 (National Center for Advancing Translational Sciences (NCATS), 2010).
Screen size: about 370,000 compounds; about 150 (0.041%) were called active. Inconclusive results, whose numbers are uncertain, are shown with a selection of clear calls. Calls come from the whole dose curve; as a rule, active = well fitted inhibition curve with a large enough effect; inconclusive = small, poorly fitted or top-dose-only effect; inactive = flat fitted curve, though single readings scatter. No potency is given beside an inconclusive call; the fits are too rough.

What follows are compounds tested against Beta-lactamase (Escherichia coli (strain K12)) (UniProt P00811) (assay: qHTS Inhibitors of AmpC Beta-Lactamase (assay with detergent)). Details: AmpC hydrolysis of nitrocefin, absorbance 480 nm, 0.01% Triton; activity change, negative = inhibition: at 114 µM (top of the series).
Sequence of UniProt P00811 (P00811 whole entry, looked up): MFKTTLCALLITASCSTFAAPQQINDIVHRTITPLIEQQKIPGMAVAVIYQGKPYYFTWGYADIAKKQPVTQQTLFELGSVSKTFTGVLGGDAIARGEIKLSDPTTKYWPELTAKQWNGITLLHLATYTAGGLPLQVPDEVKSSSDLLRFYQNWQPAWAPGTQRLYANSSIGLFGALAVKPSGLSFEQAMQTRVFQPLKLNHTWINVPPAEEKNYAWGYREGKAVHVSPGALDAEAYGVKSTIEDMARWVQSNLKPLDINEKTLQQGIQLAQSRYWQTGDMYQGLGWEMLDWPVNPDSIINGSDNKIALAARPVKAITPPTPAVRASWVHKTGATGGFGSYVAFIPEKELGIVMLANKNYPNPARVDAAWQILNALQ
Outline: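 20 mM phosphate pH 7.0 + 0.01% (detergent screen) or 0.0001% Triton X-100; 5.3 nM AmpC reagent; cpd preinc 15 min RT; nitrocefin (800 uM stock) to start; A480 q20 s × 4 min; Activity was normalised to no-enzyme and no-compound control wells.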
Note: nearly all actives have a fitted effect of over 25% in size.
Potency is the fitted concentration of half-maximal effect; tags give direction and shape of the fitted curve.
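Throughout, for activity change, negative = inhibition: 0% = no-compound wells and -100% = no-enzyme wells.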

Structure (SMILES) | activity change, negative = inhibition | Potency
O=C(Nc1ccc2nc(SCC(=O)N3CCc4ccccc43)sc2c1)c1ccccc1 | inactive: 18.2% | 
CCc1ccc(N2CC34C=CC(O3)C(C(=O)OC)C4C2=O)cc1 (stereo not given) |  | inconclusive [inhibitor, full curve, poor fit]
COc1ccc(C(c2sc3nc(C)nn3c2O)N2CCN(Cc3ccccc3)CC2)cc1OC (stereo not given) |  | inconclusive [inhibitor, full curve]
CC(=O)Nc1ccc(S(=O)(=O)N(C)CC(=O)Nc2nc3ccccc3[nH]2)cc1 |  | inconclusive [inhibitor, partial curve]
COc1ccc(NS(=O)(=O)c2cccc(C(=O)NNC(=O)c3ccccc3O)c2)cc1 |  | inconclusive [inhibitor, full curve]
N#Cc1nnn(-c2cc(Cl)cc(Cl)c2)c1N |  | inconclusive [inhibitor, single point]
CSc1ccc(CNC(=O)Cn2nc(N3CCN(c4ccccc4)CC3)ccc2=O)cc1 |  | inconclusive [inhibitor, single point]
S=C(NCc1ccco1)Nc1cc(Cl)c(Cl)cc1Cl |  | inconclusive [inhibitor, full curve, poor fit]
O=C(N/C(=C/c1ccc(Br)cc1)c1nc2ccccc2[nH]1)c1ccco1 | inactive: 3.89% | 
O=C(COC(=O)c1ccc(Br)o1)Nc1ccc(Br)cc1 |  | inconclusive [inhibitor, single point]
CC(C)CN1C(=O)C(=O)N(CC(=O)N2CCN(c3ccccc3)CC2)C1=O |  | inconclusive [inhibitor, partial curve, poor fit]
CCN(C(=O)CSc1nc2c(cnn2-c2ccccc2)c(=O)[nH]1)C1CCS(=O)(=O)C1 (stereo not given) | inactive: -4.13% | 
Cc1ccc(NC(=O)CN2C(=O)NC(C)(c3ccc(Cl)cc3)C2=O)cc1 (stereo not given) |  | inconclusive [inhibitor, partial curve, poor fit]
Cc1cc(-c2nnc(SCC(=O)Nc3nc(-c4ccccc4)cs3)o2)no1 |  | inconclusive [inhibitor, full curve]
CCCCC(CC)CNC(=O)C1C2C=CC(C2)C1C(=O)O (stereo not given) |  | inconclusive [inhibitor, full curve]
O=c1c2ccc(Cl)cc2nc(-c2cccc(C(F)(F)F)c2)n1O | inactive: 4.08% | 
Cc1cc(C=O)c2c(c1)C=CC1(Oc3ccccc3C(=O)N1C)O2 (stereo not given) |  | inconclusive [inhibitor, single point]
CCN(C(=O)CN1CCN(S(=O)(=O)c2cc(Cl)ccc2Cl)CC1)c1c(N)n(Cc2ccccc2)c(=O)[nH]c1=O | inactive: -7.93% | 
Cc1cc2cc(CNC(=O)c3ccc(S(=O)(=O)N4CCCCC4)cc3)ccc2[nH]1 |  | inconclusive [inhibitor, full curve]
O=[N+]([O-])c1ccc(N2CCN(c3ccc(F)cc3)CC2)cc1 |  | inconclusive [inhibitor, single point]
CCCOc1ccc(C2c3c(oc4ccccc4c3=O)C(=O)N2CCN(CC)CC)cc1OC (stereo not given) |  | inconclusive [inhibitor, full curve, poor fit]
COCCNC(=O)c1ccccc1NC(=O)c1ccccc1N(C)S(C)(=O)=O |  | inconclusive [inhibitor, full curve, poor fit]

Structure (SMILES) | activity change, negative = inhibition | Potency
CCCCN(C(=O)CC1CCCCC1)c1c(N)n(CC(C)C)c(=O)[nH]c1=O |  | inconclusive [inhibitor, full curve, poor fit]
N#Cc1cccc(Cn2nnc(-c3ccccc3)n2)c1 | inactive: -6.98% | 
COCCCN1C(=O)C(=O)/C(=C(/O)c2ccc(OC(C)C)cc2)C1c1ccncc1 (stereo not given) |  | inconclusive [inhibitor, full curve, poor fit]
COCCCn1c(SCC(=O)Nc2cccc(C(=O)OC)c2)nnc1-c1ccncc1 |  | inconclusive [inhibitor, partial curve]
CCOC(=O)C(C(=O)NCCCN1CCOCC1)C1CCCCC1 (stereo not given) |  | inconclusive [inhibitor, single point]
CC1CCN(C2(O)C(=O)Nc3ccc(Br)cc32)CC1 (stereo not given) |  | inconclusive [inhibitor, single point]
CCn1c(=O)c(=O)n(CC)c2cc(S(=O)(=O)N3CCc4ccccc43)ccc21 |  | inconclusive [inhibitor, full curve]
COc1ccc(OC)c(NC(=O)N2CCCc3ccccc32)c1 | inactive: -13.3% | 
CCOC(=O)N1CCN(C(=O)COC(=O)CNC(=O)c2ccc(C)cc2)CC1 |  | inconclusive [inhibitor, partial curve]
O=S(=O)(NCC(O)COCc1ccco1)c1cccs1 (stereo not given) |  | inconclusive [inhibitor, full curve, poor fit]
Cc1ccc(NC(=O)C2CCN(S(=O)(=O)c3ccc4c(c3)CC(C)N4C(=O)C3CCC3)CC2)nc1 (stereo not given) |  | inconclusive [inhibitor, full curve, poor fit]
CC1=C(C(=O)Nc2ccccc2Cl)C(c2cccc(O)c2)n2ncnc2N1 (stereo not given) | inactive: 18.4% | 
CC(C(=O)Nc1cccc([N+](=O)[O-])c1)N1CCN(C/C=C/c2ccccc2)CC1 (stereo not given) |  | inconclusive [inhibitor, full curve, poor fit]
Cc1ccc(C2=N/C(=C/N3CCOCC3)C(=O)O2)cc1 |  | inconclusive [inhibitor, partial curve]
Cc1ccc(Cl)cc1N1CCN(Cc2nc3c(c(=O)[nH]c(=O)n3C)n2CCc2ccccc2)CC1 |  | inconclusive [inhibitor, full curve, poor fit]
CCN(CC)CCN(Cc1cc2cc3c(cc2[nH]c1=O)OCCO3)C(=S)NC |  | inconclusive [inhibitor, full curve, poor fit]
Fc1ccc(Nc2ncnc3sc4c(c23)CCC4)cc1 | inactive: -0.0298% | 
O=C(Cc1ccccc1)NN1C(=O)/C(=C/c2ccccc2C(=O)O)SC1=S | inactive: 2.96% | 
NC(=O)c1cc(S(=O)(=O)N2CCCC2)ccc1OCCOc1ccccc1F |  | inconclusive [inhibitor, partial curve, poor fit]
O=C(Nc1nc(-c2cccs2)c(-c2cccs2)s1)C1CCCC1 |  | inconclusive [inhibitor, full curve, poor fit]
CN(C)C1(CNC(=O)Nc2ccccc2)CCCCC1 |  | inconclusive [inhibitor, full curve, poor fit]
CC(Sc1nc(-c2ccccc2)cc(C(F)(F)F)n1)C(=O)N1CCC(C(N)=O)CC1 (stereo not given) |  | inconclusive [inhibitor, single point]

Structure (SMILES) | activity change, negative = inhibition | Potency
O=C(Nc1ccc(Cl)cn1)C1CC1 |  | inconclusive [inhibitor, full curve, poor fit]
Cc1cc(NC(=O)c2ccc3c(c2)N(Cc2cccc(Cl)c2)C(=O)c2ccccc2S3(=O)=O)ccc1Br | inactive: -10.2% | 
COc1ccc(-n2nc(C(=O)NCC(=O)N(C)Cc3ccccc3)c3ccccc3c2=O)cc1OC |  | inconclusive [inhibitor, full curve, poor fit]
COc1cc(OC)c(/C=N/NC(=O)c2ccncc2)cc1Br | inactive: -10.1% | 
Cc1ccc(N(CC(=O)NC2CCC(C)CC2)S(=O)(=O)c2cccnc2)cc1 (stereo not given) |  | inconclusive [inhibitor, partial curve, poor fit]
CCN(c1ccccc1)S(=O)(=O)c1nnc(NC(=O)c2ccccc2OC)s1 |  | inconclusive [inhibitor, partial curve]
O=C(Nc1ccc(O)c(-c2nc3ccccc3o2)c1)C1(c2ccc(Cl)cc2)CCCC1 |  | inconclusive [inhibitor, partial curve]
CCC(C)[C@H]1CNCCN1CCc1cccc(F)c1 (stereo not given in full) | inactive: -10% | 
COc1ccc(CC(=O)Nc2ccc(S(=O)(=O)N3CCCC3)cc2)c(OC)c1 | inactive: -0.426% | 
CCN(CC)S(=O)(=O)c1ccc(C)c(NC(=S)N2CCN(Cc3ccc4c(c3)OCO4)CC2)c1 | inactive: 8.68% | 
CCOC(=O)c1c(C)oc2nc(C)nc(NCCc3ccc(OCC)c(OCC)c3)c12 | inactive: 4.93% | 
COC(=O)c1ccccc1N1C(=O)C2C(C1=O)[C@H]1C=C[C@@H]2C1 (stereo not given in full) |  | inconclusive [inhibitor, single point]
Cc1cccc(C)c1NC(=O)CN1CCN(CCCC(c2ccc(F)cc2)c2ccc(F)cc2)CC1 |  | inconclusive [inhibitor, full curve, poor fit]
CC(C)CNS(=O)(=O)c1ccc(CCC(=O)Nc2cc(Cl)ccc2Oc2ccccc2)cc1 | inactive: -9.3% | 
O=C(NCCCN1CCCC1)[C@H](CSCc1ccccc1)N1Cc2ccccc2C1=O | inactive: -3.98% | 
CCOc1ccc(C(C)=O)cc1CN1C(=O)C(=O)N(CC)C1=O | inactive: -1.47% | 
CCSCCOC(=O)C1=C(C)N(C)C(=O)NC1c1cc(OC)ccc1OC (stereo not given) |  | inconclusive [inhibitor, partial curve, poor fit]
CSc1ccccc1NC(=O)C(C)N1C(=O)c2ccccc2S1(=O)=O (stereo not given) |  | inconclusive [inhibitor, full curve, poor fit]
O=C(Cn1cncn1)N/N=C/c1cc([N+](=O)[O-])ccc1O | inactive: 6.8% | 
FC(F)(F)c1cnc(C(c2ccccn2)c2ncn[nH]2)c(Cl)c1 (stereo not given) |  | inconclusive [inhibitor, full curve, poor fit]
Cc1ccn2c(=O)nc(SCC(=O)NCCc3ccccc3)nc2c1 |  | inconclusive [inhibitor, full curve, poor fit]
